# Some of the results follow. Each Rep nickase domain was tested in vitro on the same pool of single strands (1 h at 37 °C, 3 µM enzyme); the outer parts of the 90-letter strands are left off. Numbers give uncut DNA relative to the enzyme-free pool, as log2; strong cutting gives strongly negative numbers. There is no active / inactive call. Reads are scaled to the total; where an enzyme cuts many sequences, the uncut ones exceed 0.
# Key:
# Assay in all cases: uncleaved DNA left, log2 of reads against the no-enzyme library (log2 ratio); higher = less cleavage (more negative = more Rep cleavage of the k-mer); sequences stand for … in CTCGTCCG…ACCGGAGA
# [1] = tested on: T1, Rep nickase domain of Muscovy duck circovirus
# T1 sequence (protein, residues 1-111, tag omitted): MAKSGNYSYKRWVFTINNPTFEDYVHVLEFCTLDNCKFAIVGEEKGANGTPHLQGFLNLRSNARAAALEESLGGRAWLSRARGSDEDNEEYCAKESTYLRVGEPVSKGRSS
# Procedure: (§1)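 A pool of 90-nt single-stranded DNAs with seven random bases just before the constant AC of the nick site (name = the seven bases) was cut by 3 µM recombinant His6-SUMO-tagged Rep nickase domain (300 nM DNA, 50 mM HEPES pH 8.0, 50 mM NaCl, 1 mM MnCl2, 1 h, 37 °C, three replicates). Uncut DNA was amplified and sequenced.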
# [2] = tested on: T2, Rep nickase domain of banana bunchy top virus
# T2 sequence (protein, residues 1-94, tag omitted): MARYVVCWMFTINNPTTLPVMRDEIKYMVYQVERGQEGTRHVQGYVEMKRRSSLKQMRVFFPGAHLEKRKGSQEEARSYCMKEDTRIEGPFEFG
# Procedure: as §1
# [3] = tested on: T3, Rep nickase domain of cabbage leaf curl virus
# T3 sequence (protein, residues 1-116, tag omitted): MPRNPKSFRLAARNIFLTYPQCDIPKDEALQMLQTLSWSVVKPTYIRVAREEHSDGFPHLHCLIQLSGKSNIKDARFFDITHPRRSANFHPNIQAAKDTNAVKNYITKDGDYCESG
# Procedure: as §1
# [4] = tested on: T4, Rep nickase domain of chickpea chlorotic dwarf virus
# T4 sequence (protein, residues 1-124, tag omitted): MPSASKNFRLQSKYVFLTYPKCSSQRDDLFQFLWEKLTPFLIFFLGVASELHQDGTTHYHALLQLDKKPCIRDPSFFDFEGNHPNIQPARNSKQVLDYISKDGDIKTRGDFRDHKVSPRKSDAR
# Procedure: as §1
# [5] = tested on: T5, Rep nickase domain of faba bean necrotic yellows virus
# T5 sequence (protein, residues 1-98, tag omitted): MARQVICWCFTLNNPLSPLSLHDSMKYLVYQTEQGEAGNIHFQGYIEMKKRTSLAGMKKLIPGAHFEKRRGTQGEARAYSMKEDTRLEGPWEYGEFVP
# Procedure: as §1
# [6] = tested on: T6, Rep nickase domain of maize striate mosaic virus
# T6 sequence (protein, residues 1-117, tag omitted): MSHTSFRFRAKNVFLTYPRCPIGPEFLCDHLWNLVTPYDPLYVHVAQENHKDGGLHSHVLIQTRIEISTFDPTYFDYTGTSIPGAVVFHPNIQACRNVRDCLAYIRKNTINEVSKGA
# Procedure: as §1
# [7] = tested on: T7, Rep nickase domain of porcine circovirus 2
# T7 sequence (protein, residues 2-116, tag omitted): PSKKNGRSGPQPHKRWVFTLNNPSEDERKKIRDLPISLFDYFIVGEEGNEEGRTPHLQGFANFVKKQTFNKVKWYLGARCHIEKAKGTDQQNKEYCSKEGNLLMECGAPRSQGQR
# Procedure: as §1
# [8] = tested on: T8, Rep nickase domain of tomato golden mosaic virus
# T8 sequence (protein, residues 1-124, tag omitted): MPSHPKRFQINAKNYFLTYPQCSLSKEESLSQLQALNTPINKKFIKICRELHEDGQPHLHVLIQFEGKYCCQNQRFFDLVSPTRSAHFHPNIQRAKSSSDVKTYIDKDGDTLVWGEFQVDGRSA
# Procedure: as §1
# [9] = tested on: T9, Rep nickase domain of tomato yellow leaf curl virus
# T9 sequence (protein, residues 1-136, tag omitted): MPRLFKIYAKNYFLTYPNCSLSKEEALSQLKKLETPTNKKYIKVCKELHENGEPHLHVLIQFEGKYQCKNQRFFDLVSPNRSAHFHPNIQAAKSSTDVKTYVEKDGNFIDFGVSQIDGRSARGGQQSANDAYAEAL
# Procedure: as §1
# [10] = tested on: T10, Rep nickase domain of wheat dwarf virus
# T10 sequence (protein, residues 1-137, tag omitted): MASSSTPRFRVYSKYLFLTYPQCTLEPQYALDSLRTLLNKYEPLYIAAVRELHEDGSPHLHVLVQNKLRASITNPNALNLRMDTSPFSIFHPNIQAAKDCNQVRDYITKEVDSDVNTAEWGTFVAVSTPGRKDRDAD
# Procedure: as §1
Sequence,uncleaved DNA left (log2) [1],uncleaved DNA left (log2) [2],uncleaved DNA left (log2) [3],uncleaved DNA left (log2) [4],uncleaved DNA left (log2) [5],uncleaved DNA left (log2) [6],uncleaved DNA left (log2) [7],uncleaved DNA left (log2) [8],uncleaved DNA left (log2) [9],uncleaved DNA left (log2) [10]
GGTGCAG,-0.0997,-0.0759,0.636,1.5,-0.0596,1.73,0.104,-0.091,-0.123,0.0573
GTTAATG,0.126,0.0697,0.131,0.436,0.0935,0.136,0.081,0.167,0.036,0.0612
ATACTGC,0.0486,0.0387,-0.334,-0.503,0.0608,-0.915,0.242,0.121,0.0511,0.0886
GCCTTGC,-0.0252,0.000234,-0.645,-0.464,-0.0332,-1.15,0.00727,-0.0208,0.00509,-0.171
ACGGGTT,0.0871,0.102,0.00271,-0.672,-0.0417,0.341,0.0895,0.0466,-0.0587,-0.169
CTAGCCA,-0.0459,0.108,-0.15,-0.954,-0.0125,-0.545,0.00555,-0.132,0.0917,0.0335
CGCGGGC,0.0464,-0.0164,0.0336,0.104,0.0539,-0.168,-0.0736,-0.0803,-0.152,-0.0326
AAAAGTA,0.0277,0.101,-0.36,-2.23,0.0102,-0.733,-0.103,0.115,0.0417,-0.0147
TAACGCT,-0.051,0.0666,-3.17,-3.5,0.0213,-1.79,-0.304,-0.449,-0.0226,-2.09
TATGTAA,0.0442,-0.0535,-0.0372,-0.644,0.124,-0.408,-0.113,0.0193,0.000269,0.119
GATGAAT,0.0691,0.146,0.278,0.676,0.043,1.46,0.0603,0.175,0.0602,0.199
TTCGTCC,-0.0036,-0.191,0.079,-0.359,-0.118,-0.452,-0.267,-0.165,-0.241,-0.268
TTTCCAT,-0.00128,0.0925,0.15,-0.519,-0.149,-0.0769,-0.352,-0.191,0.0832,0.0968
GTGAGCT,-0.12,-0.00514,0.24,0.6,-0.089,0.805,0.0022,-0.132,0.0656,-0.0391
TGACGTT,0.0665,-0.111,0.338,0.127,0.0436,1.36,-0.0352,-0.0544,0.142,0.014
AATACTC,-0.083,-0.0142,-0.0327,-1.16,-0.086,-0.537,-0.107,-0.11,-0.0782,-0.004
TCGGTCT,-0.0824,-0.017,0.222,-1.05,0.036,0.121,-0.126,-0.0366,-0.0272,0.0737
GCGCATA,-0.0343,-0.0343,0.0177,0.419,-0.0439,0.345,-0.153,-0.0987,-0.0257,-0.1
TTCCCAC,0.0482,-0.0131,0.178,-0.111,-0.101,-0.224,-0.26,-0.0769,0.0652,0.0994
TAGGTAT,0.145,0.0422,0.256,0.721,-0.0327,1.65,-0.718,0.0643,-0.0748,0.00326
ACACAGA,0.143,0.112,-0.209,-0.196,0.137,-1.01,0.202,0.157,0.0145,0.139
AACTTTT,-4.26,-3.63,-1.55,-2.93,-0.39,-0.889,-4.51,-0.415,-0.115,-0.3
ATCATGC,-0.000486,-0.0271,-0.549,-0.175,0.0101,-0.936,0.165,-0.000908,0.0718,-0.1
CTTGCCC,-0.105,-0.255,-0.47,-0.683,0.0815,-0.974,-0.0514,-0.199,-0.0659,-0.25
ATGAGTA,0.0768,0.0703,-0.194,-0.941,0.167,-0.775,-0.245,0.0239,0.0241,-0.12
CAGCCTG,0.0601,0.108,0.149,0.835,-0.016,1.44,0.126,-0.0103,-0.0559,-0.00599
GGTGATA,0.0446,0.0504,0.626,1.47,-0.00589,2.05,0.0801,0.0379,0.00651,0.098
TCTAGTG,0.0714,-0.0237,-0.407,-0.783,0.0475,-1.06,0.151,0.0861,0.0697,-0.0753
ACGAAGG,-0.0719,-0.0401,-0.525,-0.257,0.0394,-0.933,0.124,0.039,0.0508,-0.0988
CAGTGTA,-0.0726,-0.731,-0.196,-1.2,-0.374,-0.565,-2.6,0.00332,0.106,0.0673
